Measurements published in a collection of fitness landscapes (doi:10.1016/j.celrep.2020.107928).
Over roughly 81,000 sequences, “one-hybrid fitness for binding parS DNA” has its median near -0.17; the highest 2% begin near 0.51. This is one part of the list.

B1: Caulobacter ParB omega fusion; a variant is named by its letters at X, in order, B8GW30 (parent)
chain: MESVVVGEPGMSEGRRGLGRGLSALLGEVDAAPAQAPGEQLGGSREAPIEILQRNPDQPRRTFREEDLEDLSNSIREKGVLQPILVRPSPDTAGEYQIVAGERAWRAAQRAGLKTVPIMVRELDDLAVLEIGIIENVQRADLNVLEEALSYKVLMEKFERTQENIAQTIGKSXSHVANXMRLLXLPDEVQSYLVSGELTAXHARAIAAAADPVALAKQIIEGGLSVRETEALARKAPNLSAGKSKGGRPPRVKDTDTQALESDLSSVLGLDVSIDHRGSTGTLTITYATLEQLDDLCNRLTRGI

Variants of: B1
Experiment: one-hybrid fitness for binding parS DNA (scaled: cognate 1, non-cognate 0); higher = stronger binding
Settings: with parS DNA site
Summary of the method: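 In E. coli USO, a HIS3 reporter with its site placed 19 bp from the promoter was used to select Caulobacter ParB variants randomised at four specificity codons. Growth lasted 48 hours at 37°C on histidine-free M9 containing 0.1 mM IPTG and 5 mM 3-AT. Fitness was taken as the log change in variant-to-wild-type read ratio from Illumina sequencing of pre- and post-selection plasmids, rescaled between the non-cognate and cognate sites.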

Variant | one-hybrid fitness for binding parS DNA
HPAV | ≤ 0.2
SNCE | ≤ 0.2
IRKY | ≤ 0.2
VVMT | ≤ 0.2
NPYR | ≤ 0.2
VNDC | ≤ 0.2
CPTW | ≤ 0.2
NRMF | ≤ 0.2
TERF | ≤ 0.2
SLTG | ≤ 0.2
AKTY | ≤ 0.2
QGLT | ≤ 0.2
TIIL | ≤ 0.2
HQHH | ≤ 0.2
VVYS | ≤ 0.2
QRSD | ≤ 0.2
DRYS | ≤ 0.2
ERWG | ≤ 0.2
CKQT | ≤ 0.2
FCRR | ≤ 0.2
GVIR | ≤ 0.2
VEGN | ≤ 0.2
WYYG | ≤ 0.2
YYTR | ≤ 0.2
RLQR | ≤ 0.2
SSHF | ≤ 0.2

Variant | one-hybrid fitness for binding parS DNA
MCNT | ≤ 0.2
CQAC | ≤ 0.2
ALCS | ≤ 0.2
QDLH | ≤ 0.2
PTDC | ≤ 0.2
GECR | ≤ 0.2
LSQN | ≤ 0.2
FKST | ≤ 0.2
LKTM | ≤ 0.2
LGDV | ≤ 0.2
YYQP | ≤ 0.2
HHTK | ≤ 0.2
HSQT | ≤ 0.2
MIGG | ≤ 0.2
VLAS | ≤ 0.2
RIIF | ≤ 0.2
SANW | ≤ 0.2
WFLC | ≤ 0.2
TCSS | ≤ 0.2
IQKC | ≤ 0.2
RYTD | ≤ 0.2
LMKP | ≤ 0.2
SAMC | ≤ 0.2
TVLC | ≤ 0.2
GKRM | ≤ 0.2
KSWR | ≤ 0.2

Variant | one-hybrid fitness for binding parS DNA
ILVV | ≤ 0.2
MVAF | ≤ 0.2
ATRR | ≤ 0.2
ELLF | ≤ 0.2
RLET | 0.783
ILQC | ≤ 0.2
KQTR | ≤ 0.2
TDEE | ≤ 0.2
NRHG | ≤ 0.2
LVKP | ≤ 0.2
PTQS | ≤ 0.2
HPGR | ≤ 0.2
DTRH | ≤ 0.2
LAIC | ≤ 0.2
LKMS | ≤ 0.2
TRSR | ≤ 0.2
MVEY | ≤ 0.2
TNAS | ≤ 0.2
HTKK | ≤ 0.2
MFNK | ≤ 0.2
SSQQ | ≤ 0.2
DVQY | ≤ 0.2
SESP | ≤ 0.2
INSM | ≤ 0.2
RNFD | ≤ 0.2
ALQP | ≤ 0.2

Variant | one-hybrid fitness for binding parS DNA
EWTE | ≤ 0.2
VPKC | ≤ 0.2
TVEG | ≤ 0.2
CRMI | ≤ 0.2
DECC | ≤ 0.2
QRGP | ≤ 0.2
DRNR | ≤ 0.2
SARH | ≤ 0.2
QTHH | ≤ 0.2
SADR | ≤ 0.2
AYGH | ≤ 0.2
SRLF | ≤ 0.2
RKVP | ≤ 0.2
ATTY | ≤ 0.2
QMHS | ≤ 0.2
DLGC | ≤ 0.2
ELRN | ≤ 0.2
QNKT | ≤ 0.2
LAGD | ≤ 0.2
MEYC | ≤ 0.2
GNQF | ≤ 0.2
VIMA | 0.254
RCPV | ≤ 0.2
AFLM | ≤ 0.2
KQRC | ≤ 0.2
TFDD | ≤ 0.2

Variant | one-hybrid fitness for binding parS DNA
ISYP | ≤ 0.2
QPQY | ≤ 0.2
SGTL | ≤ 0.2
EREI | ≤ 0.2
IYTM | ≤ 0.2
LSTI | ≤ 0.2
KRAG | ≤ 0.2
AMTK | ≤ 0.2
TMNK | ≤ 0.2
AHRT | ≤ 0.2
PNNM | ≤ 0.2
LDPC | ≤ 0.2
FTCR | ≤ 0.2
VEVR | ≤ 0.2
PTDW | ≤ 0.2
PKDD | ≤ 0.2
PVPY | ≤ 0.2
RIFA | 0.529
RTRN | 0.396
LNKF | ≤ 0.2
EDTC | ≤ 0.2
WNRV | ≤ 0.2
KGVR | ≤ 0.2
TPST | ≤ 0.2
RHGT | 0.832
QEVL | ≤ 0.2

Variant | one-hybrid fitness for binding parS DNA
EPKV | ≤ 0.2
VDQD | ≤ 0.2
PVYN | ≤ 0.2
DENR | ≤ 0.2
LCKE | ≤ 0.2
DGMY | ≤ 0.2
HMMR | ≤ 0.2
QLNM | ≤ 0.2
LVYR | ≤ 0.2
LIGE | ≤ 0.2
FANS | ≤ 0.2
TTPE | ≤ 0.2
KHMR | ≤ 0.2
AFGS | ≤ 0.2
RCFA | 0.589
VTHY | ≤ 0.2
WHLI | ≤ 0.2
RWCS | 0.756
GYNR | ≤ 0.2
YFNF | ≤ 0.2
TEET | ≤ 0.2
LGSM | ≤ 0.2
DFSC | ≤ 0.2
